The values that follow come from PubChem BioAssay AID1745853 (National Center for Advancing Translational Sciences (NCATS), 2022).

What all share (assay): Primary Screen for Target Class Profiling of Small Molecule Inhibitors of Methyltransferases
In test [1] the target is Glycine N-methyltransferase (Homo sapiens) (UniProt Q14749). The conditions noted are these: purified enzyme, MTase-Glo SAH luminescence; measured here: GNMT inhibition; at 40 µM; stronger effect = lower value. In short, it runs like this:
(§1)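 Each enzyme was reacted with SAM and its substrate, with compounds tested once at 40 uM; SAH formed was read by MTase-Glo luminescence.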

For test [2], the target named is Guanidinoacetate N-methyltransferase (Homo sapiens) (UniProt Q14353). The conditions noted are these: purified enzyme, MTase-Glo SAH luminescence; measured here: GAMT inhibition; at 40 µM; stronger effect = lower value. The gist of the method: as §1
For test [3], the target named is Histamine N-methyltransferase (Homo sapiens) (UniProt P50135). The settings on record: purified enzyme, MTase-Glo SAH luminescence; measured here: HNMT inhibition; at 40 µM; stronger effect = lower value. The gist of the method:
as §1

Test [4] addresses Nicotinamide N-methyltransferase (Homo sapiens) (UniProt P40261). The settings on record: purified enzyme, MTase-Glo SAH luminescence; measured here: NNMT inhibition; at 40 µM; stronger effect = lower value. The gist of the method: as §1
Test [5] concerns the target Phenylethanolamine N-methyltransferase (Homo sapiens) (UniProt P11086). The settings on record: purified enzyme, MTase-Glo SAH luminescence; measured here: PNMT inhibition; at 40 µM; stronger effect = lower value. The gist of the method: as §1

The structures appear in SMILES notation. The list shows a part of the results. These are further read-outs of the screen, such as a control signal, another cell line or another target. No call is given for them.
% is set by controls: 0 for no effect and ±100 for the full control effect.

For the compound `CCCn1c(=O)c2cc(F)ccc2n2c(SCC(=O)NC3CCCC3)nnc12`, the activity change, negative = inhibition in test [1] was -2.74%; in test [2] it was 0%; in test [3], 3.42%; in test [4], 4.89%; in test [5], 3.53%.
Consider `Cc1ccc(C)c(N2CCN(S(=O)(=O)c3cc4c(cc3C)n(C)c(=O)n4C)CC2)c1`, for which the activity change, negative = inhibition in test [1] was -1.69%; in test [2], 4.97%; in test [3], -5.14%; in test [4] it was -7.43%; in test [5], -0.614%.
The matching figures for `O=C(c1ccccn1)N1CCC2(CC(c3cccc(C(F)(F)F)c3)=NO2)C1` (stereo not drawn): 0.934%, 1.97%, 1.34%, -1.06% and 13.2%.
The like results for `Cc1cccc(CNC(=O)c2cc3n(n2)CC(C)(C(=O)NCc2ccccc2)N(C)C3=O)c1` (stereo not drawn) were, in that order, 4.09%, 0%, -0.239%, -0.328% and -3.44%.
For `COc1ccccc1CNC(=O)C1(C)Cn2c(cc3ccccc32)C(=O)N1CCCc1ccccc1` (stereo not drawn), the activity change, negative = inhibition is -7.17% in test [1]; -0.388% in test [2]; -1.76% in test [3]; -12.9% in test [4]; -4.47% in test [5].
The matching figures for `CN1C(=O)c2cc(C(=O)NCCCN3CCCC3=O)nn2CC1(C)C(=O)NC1CCCCCC1` (stereo not drawn): 3.36%, 1.76%, 4.74%, 1.18% and 0.595%.
`Cn1nccc1C(O)c1cc2n(n1)CCN(CC(=O)NCc1ccco1)C2` (stereo not drawn): the activity change, negative = inhibition in test [1] was -4.05%; in test [2], -8.64%; in test [3], -1.89%; in test [4], -11.4%; in test [5] it was -8.34%.
Regarding `CNC(=O)N1CCC(C2CCN(Cc3ccc(Br)o3)C2)CC1` (stereo not drawn), the activity change, negative = inhibition was -4.29% in test [1]; -8.68% in test [2]; -38.2% in test [3]; -12.6% in test [4]; -12.6% in test [5].
On to `Cc1ccccc1CN1C(=O)c2cc3occc3n2CC1(C)C(=O)NC1CCCCCCC1` (stereo not drawn), for which the activity change, negative = inhibition in test [1] was -5.94%; in test [2], 3.5%; in test [3], -2.49%; in test [4], -5.86%; in test [5], -5.46%.
With `Cc1ccc2[nH]c(CCC(=O)N3CC[C@H](CO)[C@H](O)C3)nc2c1C`, the activity change, negative = inhibition in test [1] was -1.62%; in test [2], -3.03%; in test [3], 1.59%; in test [4] it was -6.57%; in test [5], -5.46%.
The like results for `CCOC(=O)c1cc2n(n1)CC(C)(C(=O)NC1CCCCCC1)N(Cc1ccc(F)cc1)C2=O` (stereo not drawn) were, in that order, 8.04%, 3.01%, 7.9%, 1.45% and 7.36%.
In the case of `O=C(Nc1nn(-c2cccc(F)c2)c2cccc(N3CCOCC3)c12)C1CCC1`, the activity change, negative = inhibition in test [1] is -8.53%; in test [2], -2.47%; in test [3], -6.91%; in test [4], -11%; in test [5], -3.58%.
The matching figures for `CCC(C)NC(=O)c1ccc2c(=O)n(C)c3nn(CC(=O)Nc4ccccc4)c(=O)n3c2c1` (stereo not drawn): 3.67%, 0.214%, 3.17%, 1.32% and 3.68%.
The matching figures for `COc1cccc(CCN(Cc2cccc(C)c2)C(=O)[C@H]2CCC[C@H](O)C2)c1`: -6.83%, -7.94%, -4.37%, -15% and -7.29%.
The like results for `CCCC1c2ccc(C)n2CCN1C(=O)Nc1ccc(C)c(C)c1` (stereo not drawn) were, in that order, -3.63%, 0.602%, -2.29%, 6.12% and -3.75%.
As for `Cc1cc2c(c(=O)[nH]1)OC(C(O)CC(C)C)O2` (stereo not drawn), the activity change, negative = inhibition in test [1] is -3.16%; in test [2], -6.06%; in test [3], 4.78%; in test [4] it was -18.9%; in test [5], -20%.
The matching figures for `C[C@@H](NC(=O)[C@H](O)c1cc(F)cc(F)c1)C(=O)N[C@@H]1C(=O)N(C)c2ccccc2-c2ccccc21`: -9.32%, -5.05%, -1.14%, -31.7% and -6.82%.
The matching figures for `COc1cccc(Cn2nc3n(CC(C)C)c(=O)c4ccccc4n3c2=O)c1`: -5.59%, 0%, 1.38%, -3.17% and -1.45%.
The matching figures for `CCN1CCCN(S(=O)(=O)c2cccs2)CC12CCOCC2`: -5.77%, -6.24%, -2.28%, -9.74% and 7.71%.
Take `CCCN1C(=O)c2c(C(=O)NCCc3ccccc3Cl)ncn2CC1(C)C(=O)NC1CCCC1` (stereo not drawn): the activity change, negative = inhibition in test [1] was -0.888%; in test [2] it was 0.767%; in test [3] it was 7.01%; in test [4], 3.19%; in test [5], 9.57%.
For the compound `COc1ccc(NC(=O)N2CC(N(C3CCOCC3)S(C)(=O)=O)C2)cc1F`, the activity change, negative = inhibition was -2.74% in test [1]; -4.59% in test [2]; -0.784% in test [3]; -5.03% in test [4]; -5.53% in test [5].
The like results for `CCCn1c(=O)c2cc(Cl)ccc2n2c(SCC(=O)Nc3ccccc3OC)nnc12` were, in that order, -7.5%, -11.5%, 8.16%, -14.1% and -5.91%.
Turning to `Cc1cc(C)n(CCc2nc3c4ccccc4nc(N4CCN(c5cccc(C)c5C)CC4)n3n2)n1`, the activity change, negative = inhibition was 5.62% in test [2], -3.89% in test [4] and 7.33% in test [5].
On to `CCOC(=O)c1cc2n(n1)CC(C)(C(=O)NC1CCCC1)N(Cc1cccc(F)c1)C2=O` (stereo not drawn), for which the activity change, negative = inhibition in test [1] was 2.89%; in test [2], -0.252%; in test [3], 8.92%; in test [4], -0.118%; in test [5] it was 1.75%.
The like results for `COCC1CN(Cc2ccc(Br)s2)CC12CCNCC2` (stereo not drawn) were, in that order, -4.38%, -3.05%, -11%, -1.54% and 6.67%.
The matching figures for `CC(C)C1=CCC(C)(O)C(OC2OC(CO)C(O)C(O)C2O)C1` (stereo not drawn): 0%, 5.78%, 9.81%, -6.68% and 5.09%.
The matching figures for `COc1ccccc1CNC(=O)C1c2c(n(C)c3ccccc23)SCC(=O)N1c1ccc(OC)c(OC)c1` (stereo not drawn): 11.4%, 2.23%, 7.77%, 4.37% and 9.3%.
For `CC(C)Oc1ccc(-c2cnc3c(-c4ccnc5ccccc45)cnn3c2)cc1`, the activity change, negative = inhibition in test [1] was -11.3%; in test [2], -1.18%; in test [3] it was 9.64%; in test [4], -19.3%; in test [5], -2.76%.
In the case of `CCn1nc(C)c(-c2cc(C(=O)N3CCC(CCOc4ccccc4OC)C3)no2)c1C` (stereo not drawn), the activity change, negative = inhibition in test [1] was -13.1%; in test [2], -8.58%; in test [3], -9.27%; in test [4], -16%; in test [5], -0.415%.
The like results for `O=C(CCn1ccc2cc(S(=O)(=O)N3CCCC3)ccc21)NCCc1ccc(Cl)cc1` were, in that order, 0.551%, 0%, 5.98%, -0.9% and 1.59%.
The matching figures for `c1ccc2c(CCNc3ccc(Nc4ccncc4)cc3)c[nH]c2c1`: -7.83%, 4.73%, -92.4%, -32.2% and -6.89%.
For the compound `CNC(=O)[C@@H]1CN(S(=O)(=O)C(C)C)C[C@H]1c1n[nH]c(C)n1`, the activity change, negative = inhibition in test [1] is 0.916%; in test [2], 2.02%; in test [3], 1.56%; in test [4], -2.11%; in test [5] it was 2.87%.
As for `COc1ccc(Cl)cc1NC(=O)CSc1nnc2n(CCC(C)C)c(=O)c3ccccc3n12`, the activity change, negative = inhibition was 0.306% in test [1]; 1.61% in test [2]; 4.97% in test [3]; -8.71% in test [4]; -1.14% in test [5].
Turning to `Cc1ccc(N2C(=O)CSc3c(c4ccccc4n3C)C2C(=O)NCc2ccccc2)cc1C` (stereo not drawn), the activity change, negative = inhibition in test [1] was 5.83%; in test [2] it was 1.24%; in test [3], -1.88%; in test [4], -1.07%; in test [5], 0.411%.
Take `COc1ccccc1CN1C(=O)c2nc3ccccc3n2CC1(C)C(=O)NC1CCCCC1` (stereo not drawn): the activity change, negative = inhibition was 1.42% in test [1]; 4.23% in test [2]; -0.498% in test [3]; -2.76% in test [4]; -2.25% in test [5].
The like results for `COc1cccc(CN2C(=O)c3cc4sccc4n3CC2(C)C(=O)NC2CCCC2)c1OC` (stereo not drawn) were, in that order, -6.13%, 5.42%, -6.05%, -4.64% and -3.23%.
Consider `NCCCCCC(=O)O`, for which the activity change, negative = inhibition in test [1] was 4.46%; in test [2], -5.59%; in test [3], 7.19%; in test [4], -10.3%; in test [5], -5.18%.
As to `CC(C)OCCCn1c(=O)c2ccccc2n2c(CCC(=O)NC(C)c3ccccc3)nnc12` (stereo not drawn), the activity change, negative = inhibition in test [1] came to 0.666%; in test [2], 0%; in test [3], 2.97%; in test [4], 12.6%; in test [5] it was 1.71%.
The matching figures for `CC(C)CCNC(=O)[C@H](CC(C)C)NC(=O)[C@H]1O[C@@H]1C(=O)O`: -1.86%, -8.3%, 8.59%, -12.4% and 1.17%.
Take `Cc1ncsc1C(=O)N1CC(CNC(=O)C2CC2)C2(C1)CN(c1ccccc1)C2` (stereo not drawn): the activity change, negative = inhibition in test [1] is -4.29%; in test [2], -0.584%; in test [3], 1.76%; in test [4], -3.32%; in test [5], 1.71%.
